# Laboratory results reported in PubChem BioAssay AID1508642 (National Center for Advancing Translational Sciences (NCATS), 2021).
# The campaign covered roughly 43,000 compounds. About 200 (0.47%) were called active. Roughly 12% stayed inconclusive and do not appear here. The call rests on the fitted dose curve; in most records, active means well fitted cell-killing curve with a large enough effect; inconclusive means small, poorly fitted or top-dose-only effect, or effect the other way; inactive means flat fitted curve, though single readings scatter. Some of the results follow.
# Experiment: Cell viability qHTS assay in S16 Pmp22-F2sN cells; further: nearly all actives have a fitted effect of over 65% in size
# Details: S16 Pmp22-F2sN Schwann cells (luciferase reporters placed in the Pmp22 gene) viability, CellTiter-Glo, 24 h; series mostly up to 57.5 µM; activity change, negative = cytotoxicity: at the top concentration
# Method in brief: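 S16 Schwann cells carrying the Pmp22-F2sN reporter, seeded in 1536-well format, were exposed to library compounds for 24 h at 37C. Viability was read as CellTiter-Glo luminescence after 15 min at room temperature.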
# On the % scale 0 is the no-effect control and ±100 the full control effect.
row,SMILES,"activity change, negative = cytotoxicity"
1,Cc1ccccc1-n1nc(CO)c(C(=O)NCCc2ccccc2)n1,inactive: 3.45%
2,COc1cccc(NC(=O)C(=O)NCC(c2cccnc2)N2CCN(c3ccccc3)CC2)c1 (configuration not stated),inactive: 1.38%
3,COc1ccc(OC)c(CNc2ncnc3onc(-c4ccc(Cl)cc4)c23)c1,inactive: -8.76%
4,CCOC(=O)CSc1nc2ccc(NC(=O)COc3ccccc3)cc2s1,inactive: 11.5%
5,Cc1cccc(CSc2cn(CC(=O)N3CCCCCC3)c3ccccc23)c1,inactive: -5.14%
6,CC1CCc2c(sc(NC(=O)c3ccccc3)c2C(=O)Nc2ccccc2)C1 (configuration not stated),inactive: 9.63%
7,CCOc1ccc(-c2nonc2NC(=O)COc2ccc(C)c(C)c2)cc1OCC,inactive: 1.38%
8,O=C(c1ccc2c(c1)N(Cc1cccc(Cl)c1)C(=O)c1ccccc1S2(=O)=O)N1CCN(c2cccc(C(F)(F)F)c2)CC1,inactive: -0.708%
9,CCOc1ccc(NC(=O)CSc2nnc(NC(=O)Nc3ccccc3)s2)cc1,inactive: 1.56%
10,CCOc1ccc(-c2cnc(NCc3cccc(Cl)c3)n2C)cc1,inactive: 4.01%
11,COc1ccc(C(=O)CCC(=O)Nc2cccc(C(C)=O)c2)cc1,inactive: 0.997%
12,COc1ccc(CCNC(=O)Cn2c(=O)c3cccn3c3ccc(F)cc32)cc1OC,inactive: 10.1%
13,CCC(=O)N1CCc2cc(S(=O)(=O)CCC(=O)N3CCN(c4ccccc4F)CC3)ccc21,inactive: 14.9%
14,CC(=O)c1ccc(NS(=O)(=O)c2ccc3[nH]c4c(c3c2)CCCCCC4)cc1,inactive: -0.873%
15,CCC(CC)C(=O)N1CCc2cc(OC)c(OC)cc2C1COc1ccccc1OC (configuration not stated),inactive: 3.21%
16,Cc1ccc(C)c(Cn2nnc(C(=O)NCc3ccccc3)c2N)c1,inactive: -6.83%
17,Cc1cc2oc(C(=O)Nc3nc(-c4ccccc4)ns3)c(C)c2cc1Cl,inactive: 3.25%
18,Cc1ccc(NC(=O)CN2C(=O)CCc3cc(S(=O)(=O)N4CCOCC4)ccc32)c(C)c1,inactive: -11.9%
19,CCOc1ccc(CNC(=O)c2sc3nc(C)cc(C)c3c2-n2cccc2)cc1,inactive: -3.71%
20,CN1CCN(C(CNC(=O)C(=O)Nc2ccc(F)cc2)c2cccnc2)CC1 (configuration not stated),inactive: 7.71%
21,COc1ccc2c(c1)c1c(c(=O)n(Cc3ccccc3)c(=O)n1Cc1ccccc1Cl)n2C,inactive: 1.84%
22,COc1ccc(OCC(=O)Nc2c(C(=O)N3CCN(c4ccccc4)CC3)oc3ccccc23)cc1,inactive: -0.828%
23,CCc1ccc(NC(=O)C2=C(C)C(=O)OC23CCCCC3)cc1,inactive: -19.9%
24,COCCNc1nc2c(c(=O)n(Cc3cccc(Cl)c3)c(=O)n2C)n1C,inactive: -1.58%
25,Cc1ccc(NC(=O)C2CCC(CNS(=O)(=O)c3ccc4c(c3)CCCC(=O)N4)CC2)cc1F (configuration not stated),inactive: -0.0679%

row,SMILES,"activity change, negative = cytotoxicity"
1,COc1ccc(S(=O)(=O)N(CC(=O)NCCSc2ccccc2)c2ccc(C)cc2)cc1,inactive: 2.13%
2,CC(=O)c1cccc(NC(=O)Cc2ccc(NC(=O)N3CCCCc4ccccc43)cc2)c1,inactive: 2.23%
3,COC(=O)c1ccc(NC(=O)C(=O)NCC(c2cccnc2)N2CCN(c3ccccc3)CC2)cc1 (configuration not stated),inactive: 12.6%
4,CCOC(=O)c1cc(-c2ccccc2)n(CCC(=O)NCCc2cccc(C)c2)c1C,inactive: -10.3%
5,CCCCNc1oc(-c2ccc(COc3ccccc3C)o2)nc1C#N,inactive: -21.8%
6,CCOC(=O)c1c(-c2ccc(OC)c(OC)c2)csc1NC(=O)c1ccc(C)cc1,inactive: 1.28%
7,CCCCN1CCCc2cc(CN(CCCN3CCOCC3)C(=O)Nc3ccc(CC)cc3)ccc21,inactive: 14.1%
8,O=C(O)c1cccc(NC(=O)c2cc3cc(Br)cc(Br)c3oc2=O)c1,inactive: 0.134%
9,O=C(NCc1ccc(F)cc1)c1cc2cccc3c2n1CCS3,inactive: -1.42%
10,Cc1ccc(NC(=O)CN2C(=O)C(c3ccc(C(C)(C)C)cc3)=NC2(C)C)cc1,inactive: -13.6%
11,CCCN(CCC)C(=O)CSc1c2c(nc3ccc(Cl)cc13)CCCC2,inactive: 26.9%
12,O=[N+]([O-])c1cc(-c2nc(-c3ccccc3)no2)ccc1NCc1cccnc1,inactive: 0.44%
13,COc1ccccc1CNC(=O)CCCCn1c(=O)c2ccccc2n(CC(=O)Nc2c(C)cc(C)cc2C)c1=O,inactive: 26.8%
14,COc1ccccc1Cc1nc2ccccc2nc1SCC(=O)Nc1ccc2c(c1)OCO2,inactive: -7.05%
15,Cc1ccc(C)c(NC(=O)C(Cc2ccccc2)n2cccc2)c1 (configuration not stated),inactive: -5.53%
16,COc1ccc(OC)c(NC(=O)Cn2c(=O)n(Cc3ccco3)c(=O)c3cc(OC)c(OC)cc32)c1,inactive: 7.18%
17,Brc1ccc(Nc2c3c(nc4nncn24)CCC3)cc1,inactive: -25.4%
18,Cc1ccc(C(=O)Nc2ccc(-c3nc4ccccc4o3)cc2)cc1Cl,inactive: -1.3%
19,Cc1cc(C)cc(-n2c(SCC(=O)Nc3cccc(F)c3)nc3c([nH]c4ccccc43)c2=O)c1,inactive: 4.84%
20,COc1ccc(N(Cc2cccs2)C(=O)COc2cccc(C)c2C)cc1,inactive: -2.6%
21,CCN1CCN(c2ncc3c(n2)CCN(CC(C)C)C3)CC1,inactive: 11.8%
22,CSc1ccc(NC(=O)C2CCN(c3ncccn3)CC2)cc1,inactive: -18.8%
23,CCOC(=O)N1CCc2c(sc(NCc3cccc(F)c3)c2C(=O)Nc2ccc(OC)cc2)C1,inactive: 2.94%
24,Cc1ccc(CNc2nc3ccc(Cl)cc3n3nnnc23)cc1,inactive: 0.317%
25,COc1ccc(-n2cc(-c3ccccc3)nc2SCC(=O)Nc2ccccc2C)cc1,inactive: 0.0181%

row,SMILES,"activity change, negative = cytotoxicity"
1,COc1cc(NC(=O)CCn2c(=O)oc3ccccc32)cc(OC)c1OC,inactive: 2.63%
2,Cc1cc(-c2ccc(C)c(S(=O)(=O)Nc3ccccn3)c2)on1,inactive: -0.302%
3,COc1cc(OC)c(NS(=O)(=O)c2c(C(=O)N3CCCCCC3)c(C)n(C)c2C)cc1Cl,inactive: 13.4%
4,COc1ccc(Br)cc1CNC(=O)c1ccc2nc(C(C)C)oc2c1,inactive: 2.65%
5,Cc1cccc(CC(=O)N2CC(=O)Nc3ccc(C)cc3C2c2ccc(F)cc2)c1 (configuration not stated),inactive: -7.69%
6,CCOc1ccc2oc(=O)cc(CN3CCN(Cc4ccc(C)cc4)CC3)c2c1,inactive: -9%
7,Cc1ccc(Nc2c3c(nc4nc(-c5cccs5)nn24)CCCC3)cc1F,inactive: 4.35%
8,Cc1oc(-c2ccc(Cl)cc2)nc1CS(=O)CC(=O)NCCc1ccccc1 (configuration not stated),inactive: 21.1%
9,CCOC(=O)Cn1nc(C)c(NC(=O)COc2ccccc2)c1C,inactive: -4.33%
10,COc1ccc(S(=O)(=O)NC(C)(C)C)cc1-c1nnc2c3ccccc3c(C)nn12,inactive: 7.45%
11,Cc1cccc(Cn2c(=O)n(CCCC(=O)NCc3ccccc3Cl)c(=O)c3ccccc32)c1,inactive: 0.199%
12,COc1ccccc1CNc1nc(-c2ccco2)nn1S(C)(=O)=O,inactive: -20.4%
13,Cc1ccc(S(=O)(=O)c2nc(-c3cccs3)oc2SCC(=O)Nc2cc(C)cc(C)c2)cc1,inactive: 0.772%
14,COc1ccccc1OCC(=O)N(Cc1cccs1)C1CCS(=O)(=O)C1 (configuration not stated),inactive: 3.16%
15,COc1ccccc1NC(=O)CN(c1cc(C)cc(C)c1)S(=O)(=O)c1c(C)[nH]c(=O)[nH]c1=O,inactive: 5.13%
16,CCc1nnc(SCc2nc(-c3cccc(Cl)c3)oc2C)c2cc3sc(C)cc3n12,inactive: 2.75%
17,COc1cc(OC)c(NS(=O)(=O)c2cc3c(cc2C)N(C(C)=O)CCO3)cc1Cl,inactive: 2.41%
18,COc1ccc(Cl)cc1NC(=O)CCn1c(=O)c2cccn2c2ccccc21,inactive: 8.71%
19,Cc1ccc(C)c(Cn2c(=O)cc(C(F)(F)F)c3c(C)nn(C)c32)c1,inactive: -1.04%
20,Cc1ccccc1C(=O)NCc1nc(-c2ccc(Cl)cc2)no1,inactive: -22.9%
21,NC(=O)c1c(NC(=O)c2cc(-c3ccc(F)cc3)on2)sc2c1CCCC2,inactive: 0.697%
22,Cc1cccc(NC(=O)Cn2nnc(C(=O)NCc3cccs3)c2N)c1,inactive: 9.01%
23,CCC(C(=O)Nc1ccc(C(C)C)cc1)n1nc(C)n2c(cc3cc(C)ccc32)c1=O (configuration not stated),inactive: -18.5%
24,Cc1ccc(NC(=O)c2c(C)nc3sc(C(=O)Nc4ccc(F)cc4)c(N)c3c2-c2ccc(Cl)cc2)c(C)c1,inactive: 1.02%
25,COc1cccc(NC(=O)CCc2nnc3n(Cc4ccccc4Cl)c(=O)c4ccccc4n23)c1,inactive: 14%

row,SMILES,"activity change, negative = cytotoxicity"
1,Cc1cccc(CN2C(=O)c3ccccc3S(=O)(=O)c3ccc(C(=O)N(C)Cc4ccccc4)cc32)c1,inactive: 14%
2,Cc1ccc(Nc2c(-c3ccc(N4CCOCC4)cc3)nc3cccc(C)n23)cc1,inactive: 0.559%
3,O=C1CC(c2nnc(Cc3c(F)cccc3Cl)o2)CN1c1ccccc1 (configuration not stated),inactive: -4.45%
4,CCOC(=O)c1ccc(NC2(c3ccccc3)C(=O)c3ccccc3C2=O)cc1,inactive: 3.35%
5,COc1ccccc1C(=O)Nc1nnc(S(=O)(=O)N2CCN(c3ccc(F)cc3)CC2)s1,inactive: 5.55%
6,CCOC(=O)c1ccc(NC(=O)c2sc3ccccc3c2Cl)cc1,inactive: 21.8%
7,Cc1ccc(-c2nnc3ccccc3c2C(=O)Nc2ccc(C)c(F)c2)cc1,inactive: 0.0639%
8,Cc1ccc(NC(=O)Cn2nnc(C(=O)NCCc3ccccc3)c2N)cc1,inactive: 17.9%
9,Clc1ccc(-c2csc(-c3nc(-c4ccc(Br)s4)cs3)n2)cc1,inactive: -1.57%
10,O=C(NCc1ccc(Cl)cc1)c1ccc2c(c1)NC(=O)C(CS(=O)(=O)Cc1ccc(F)cc1Cl)N2 (configuration not stated),inactive: -0.804%
11,CCC(C)Sc1oc(-c2ccco2)nc1S(=O)(=O)c1ccc(Cl)cc1 (configuration not stated),inactive: -23.9%
12,CCc1ccc(NC(=O)C2CCCN(S(=O)(=O)c3cccc4nsnc34)C2)cc1 (configuration not stated),inactive: -2.52%
13,COc1cc2c(cc1OC)C(COc1ccc3c(C)cc(=O)oc3c1)N(C(=O)Cc1ccccc1)CC2 (configuration not stated),inactive: -0.504%
14,COC(=O)c1cc2sccc2n1CC(=O)Nc1ccc(C)cc1C,inactive: 1.92%
15,Cc1ccccc1OCC(=O)Nc1ccc(C(=O)OCc2cc(=O)n3ccsc3n2)cc1,inactive: 0.51%
16,Cc1ccccc1NC(=O)c1nc(S(C)(=O)=O)ncc1N(Cc1ccco1)Cc1sccc1C,inactive: 0.587%
17,CCN(C(=O)CCc1nc(-c2ccc(C)cc2)no1)c1cccc(Cl)c1,inactive: 1.48%
18,Cc1cc(C)c(Cn2c3ccccc3c3cnn(CC(=O)NCCC4=CCCCC4)c(=O)c32)c(C)c1,inactive: 15.3%
19,COc1cccc(CNC(=O)c2ccc3nc(-c4ccccc4)c(-c4ccccc4)nc3c2)c1OC,inactive: -26.1%
20,CCOc1ccccc1C(=O)NC1(C(F)(F)F)C(=O)Nc2c1c(=O)[nH]c(=O)n2-c1ccccc1 (configuration not stated),inactive: 7.05%
21,Cc1ccc(S(=O)(=O)c2cn(Cc3ccccc3)c3cc(N4CCCC4)c(F)cc3c2=O)cc1,inactive: -3.1%
22,CCOC(=O)c1[nH]c2ccccc2c1NC(=O)c1ccc(OC(C)C)cc1,inactive: 4.26%
